Assay results as given in PubChem BioAssay AID1508642 (National Center for Advancing Translational Sciences (NCATS), 2021).
Out of some 43,000 compounds screened, about 200 (0.47%) were called active. Inconclusive results (about 12%) are left out. Calls come from the whole dose curve; as a rule, active = well fitted cell-killing curve with a large enough effect; inconclusive = small, poorly fitted or top-dose-only effect, or effect the other way; inactive = flat fitted curve, though single readings scatter. The list shows a part of the results.

Test: Cell viability qHTS assay in S16 Pmp22-F2sN cells; note: nearly all actives have a fitted effect of over 65% in size
Conditions: S16 Pmp22-F2sN Schwann cells (luciferase reporters placed in the Pmp22 gene) viability, CellTiter-Glo, 24 h; series mostly up to 57.5 µM; activity change, negative = cytotoxicity: at the top concentration
Summary of the method: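 S16 Schwann cells carrying the Pmp22-F2sN reporter, seeded in 1536-well format, were exposed to library compounds for 24 h at 37C. Viability was read as CellTiter-Glo luminescence after 15 min at room temperature.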
% is set by controls: 0 for no effect and ±100 for the full control effect.

SMILES | activity change, negative = cytotoxicity
CCCCn1cc(S(=O)(=O)c2cc(C)ccc2C)c(=O)c2cc(F)c(F)cc21 | inactive: 0.98%
COc1cccc(C(=O)N2c3ncnn3C3(CCCCC3)[C@@H]3CCCC[C@@H]32)c1 | inactive: -16.4%
Cn1ncc2c(N3CCN(c4ccccc4F)CC3)ncnc21 | inactive: -16.8%
CCOc1ccc(/C=C/c2nc(C#N)c(NC(C)c3ccccc3)o2)cc1 (stereo unspecified) | inactive: 0.0145%
COc1ccc(C)cc1NC(=O)Nc1cccc(OCc2cc(=O)n3ccc(C)cc3n2)c1 | inactive: 17%
Cc1ccccc1OCC(=O)NCC(c1ccc(Cl)cc1)N1CCCCC1 (stereo unspecified) | inactive: 5.05%
CC(=O)N1CCc2cc(Br)cc(S(=O)(=O)N3CCC(C(=O)Nc4ccc(C(C)C)cc4)CC3)c21 | inactive: -2.71%
CCOC(=O)c1ccc(-n2c(CCC(=O)O)ccc2-c2ccccc2)cc1 | inactive: 6.37%
CN(Cc1ccccc1)S(=O)(=O)c1ccc(NC(=O)c2cc(=O)c3ccccc3o2)cc1 | inactive: -50.4%
CCc1cccc(C)c1NC(=O)CN1C(=O)C2(SCC(=O)N2c2cccc(F)c2)c2ccccc21 (stereo unspecified) | inactive: -21.9%
CCOC(=O)c1c(S(=O)(=O)N2CCCC(C(=O)NCc3cccc(C)c3)C2)c(C)n(C)c1C (stereo unspecified) | inactive: 11.2%
COCCN(Cc1ccco1)C(=O)c1cc2c(=O)[nH]c3ccc(C)cc3c2s1 | inactive: 7.92%
NC1=NC(c2cccc(Cl)c2)n2c(nc3ccccc32)N1 (stereo unspecified) | inactive: -7.83%
CCCS(=O)(=O)Nc1cccc(-c2cn3ccc(C)cc3n2)c1 | inactive: -5.18%
CCOc1ccc2c(c1)c(=O)c(S(=O)(=O)c1ccc(F)cc1)cn2CC(=O)Nc1ccccc1C | inactive: 6.87%
COc1ccc(CCNC(=O)c2cccc(Nc3nc4ccccc4nc3-n3nc(C)cc3C)c2)cc1OC | inactive: 0.321%
O=C(CSc1n[nH]c(-c2ccc(F)cc2)n1)NCc1ccccc1Cl | inactive: -3.35%
COc1ccc(C)cc1NS(=O)(=O)c1c(C(=O)N2CCC(C)CC2)c(C)n(C)c1C | inactive: -0.966%
COC(=O)c1ccc(NC(=O)CCCC(=O)OCC(=O)c2ccc(Cl)cc2)cc1 | inactive: 7.67%
O=C(COc1ccccc1)NCC(c1ccc(Cl)cc1)N1CCOCC1 (stereo unspecified) | inactive: 1.09%
Cc1ccc(-c2noc(-c3ccc(N4CCN(C)CC4)c([N+](=O)[O-])c3)n2)cc1 | inactive: 1.31%

SMILES | activity change, negative = cytotoxicity
CC(C)c1nn2c(=O)cc(COC(=O)c3cccs3)nc2s1 | inactive: -17.8%
Cc1nc2cccnc2n1-c1cccc(C(=O)NCCN(C)C)c1 | inactive: -0.824%
CC(=O)Nc1ccc2nc3c(=O)n(C)c(=O)n(C)c3nc2c1C | inactive: 1.23%
COc1ccccc1CNC(=O)C(C)n1c(=O)cc(-c2ccccc2)c2c(C)nn(C)c21 (stereo unspecified) | inactive: -3.22%
Cc1cccc(OC(=O)c2cc(-c3ccc(C)c(C)c3)on2)c1 | inactive: 12.9%
O=C1CCSC2(C(=O)N(Cc3ccc(F)cc3)c3ccccc32)N1c1ccc(Cl)cc1 (stereo unspecified) | inactive: 27.5%
COc1ccc(Cl)cc1NC(=O)N1CCN(Cc2cc(=O)n3nc(-c4ccccc4)sc3n2)CC1 | inactive: -1.82%
N#Cc1nc(-c2ccc(COc3ccccc3)o2)oc1N1CCN(c2ccccc2)CC1 | inactive: 1.72%
CCc1ccc(CNC(=O)c2cnc3sc(N4CCOCC4)nn3c2=O)cc1 | inactive: 15.2%
Cc1oc(-c2ccc(C(=O)NCc3ccc(F)cc3)cc2)nc1CS(=O)c1ccccc1 (stereo unspecified) | inactive: -28.3%
CCOc1ccc(/C=C/c2nc(C#N)c(NC3CCCCC3)o2)cc1 | inactive: 6.56%
CCN(CC)CCNC(=O)c1ccc(-c2nc(CS(=O)(=O)c3ccc(C)cc3)c(C)o2)cc1 | inactive: -16.2%
CC(C)c1ccc(NC(c2nnc(-c3ccccc3)o2)c2ccc(F)cc2Cl)cc1 (stereo unspecified) | inactive: -0.489%
COc1ccccc1-c1nnc(SCC(N)=O)o1 | inactive: 5.83%
CC(=O)c1cc2c(cc1N/C(=N/S(=O)(=O)c1ccccc1)c1ccc(Cl)cc1)OCO2 | inactive: 0.93%
Cc1cc(C)cc(C(=O)Nc2c(C(=O)Nc3ccccc3F)oc3ccccc23)c1 | inactive: 0.0141%
CC(=O)c1cc(-c2ccccc2)n(CCC(=O)Nc2ccc(C(C)C)cc2)c1C | inactive: -4.38%
COc1ccc(-c2cc(C(F)(F)F)n3nc(C(=O)O)c(Cl)c3n2)cc1OC | inactive: 0.739%
CCOc1ccc(NC(=O)Cn2cc(C(=O)c3ccc(F)cc3)c(=O)c3cc4c(cc32)OCCO4)cc1 | inactive: 3.55%
CC(C)(C)OC(=O)N1CCC(c2c(C(=O)NCCN3CCCC3)cnn2-c2ccc(Cl)cc2)CC1 | inactive: -1.68%
COc1ccc(NC(=O)Cn2cnc3ccc(S(=O)(=O)N4CCC(C)CC4)cc3c2=O)cc1Cl | inactive: 21.9%

SMILES | activity change, negative = cytotoxicity
Cc1ccc(-n2ccnc(NCCc3ccc(S(N)(=O)=O)cc3)c2=O)c(C)c1 | inactive: -21.1%
Cc1cccc(OCC(=O)Nc2ccc3nc(Nc4cccc(C(F)(F)F)c4)cc(C)c3c2)c1 | inactive: 28.2%
Cc1ccc(CNC(=O)c2oc3ccc(S(=O)(=O)N4CCC(C)CC4)cc3c2C)cc1 | inactive: -4.41%
COc1ccccc1CNC(=O)c1ccc2c(c1)N(Cc1cc(C)ccc1C)C(=O)c1ccccc1S2 | inactive: -2.94%
CCCCNC(=O)c1cc2c(=O)n3cccc(C)c3nc2s1 | inactive: 17.3%
CC(=O)OCc1cnc(C)c2oc(=O)c(C(=O)Nc3ccc(C)cc3Cl)cc12 | inactive: -0.733%
CC1CCC(Nc2ncnc3onc(-c4ccc(Cl)cc4)c23)CC1 (stereo unspecified) | inactive: -1.35%
COc1ccc(-c2coc3c2c(C)cc2oc(=O)c(C)c(C)c23)cc1 | inactive: 1.15%
Cc1ccccc1NC(=O)CSc1nc2ccc(NC(=O)c3ccccc3)cc2s1 | inactive: 3.64%
COc1ccc(OC)c(CCNc2nccn(-c3ccc(C)c(C)c3)c2=O)c1 | inactive: -25.2%
O=C(NCC(c1cccnc1)N1CCOCC1)C(=O)Nc1ccc(F)cc1 (stereo unspecified) | inactive: -4.87%
Cn1c(SCc2cccc(F)c2)nc2c([nH]c3ccccc32)c1=O | inactive: 6.04%
CCCn1ccc2c(OCC(=O)Nc3ccccc3OCC)cccc2c1=O | inactive: -4.29%
COc1ccc(Cn2c(=O)[nH]c3cc(C(=O)N4CCN(c5ccccc5)CC4)ccc3c2=O)cc1 | inactive: -3.2%
Cc1ccc(CNC(=O)CCC(=O)N2Cc3ccccc3Oc3ncccc32)cc1 | inactive: 16%
CCc1ccccc1Nc1cc(C(=O)NCCc2ccccc2)c2ccccc2n1 | inactive: -22.1%
COc1ccc(N2CCN(Cc3cc(=O)oc4ccc(OC)cc34)CC2)cc1 | inactive: 11%
COc1ccccc1NC(=O)C1=C(C)Nc2nc3ccccc3n2C1c1cccc(Br)c1 (stereo unspecified) | inactive: 1.16%
CCOC(=O)c1ccc2c(c1)N(Cc1cccc(C(F)(F)F)c1)C(=O)c1ccccc1S2(=O)=O | inactive: -12.5%
